Source: the RNAGym collection of RNA variant scans (doi:10.7554/elife.90254)
Read counts are not given, so values of variants with three or more changes are uncertain.

B1: LINE1-mini (parent)
chain: GGCAGAGCUCAACACAGCGUGGCAAAGUGGCUGUGGCUAGACUGCC

Variants of: B1
Experiment: self-cleavage, relative activity (ratio to wild type); higher = more cleavage; in vitro, sequencing; the parent is a self-cleaving ribozyme
GGUAGCGCUCAACACAGCGGGGCAAAGUGGCUGUGGCUAGACUGCC [C3U A6C U20G] gave a self-cleavage of 0.33. Work on GGUAGGGCUCAACCCAGGGUGGCAAAGUGGCUGUGGCUAGACUGCC [C3U A6G A14C C18G] yielded a self-cleavage of 0.03. With GGUAGGGCUUAACACAGCGUGGCAAAGUGGCUGUGGCUAGACUGCC [C3U A6G C10U] the self-cleavage was 0.03. GGUAGGGCUCAACACAGGGUGUCAAAGUGGCUGUGGCUAGAUUGCA [C3U A6G C18G G22U C42U C46A] showed a self-cleavage of 0.18. GGUAGGAGUCAACACAGCGUGGCCAAGUGGCUGUGGCUAAACUGCC [C3U A6G G7A C8G A24C G40A] gave a self-cleavage of 0.44. GGUAGGGCUCAACACACCGUUGCAAAGUGGCUGUGGCUAGACUGGC [C3U A6G G17C G21U C45G] gave a self-cleavage of 0.03. Variant GGUAGGGCUCAACACAGCGUGCCAAAGUGGUUGUGUCUAGACUGCC [C3U A6G G22C C31U G36U] has a self-cleavage of 0.02. GGUAGGGCUCAACACAGCGAGGUAAAGUGGCUGUGGCUAGACUGCC [C3U A6G U20A C23U] showed a self-cleavage of 0.03. In the case of GGUAGUGCUCAGCACAGCGUGGCAAAGUGGCAGUGGCUAGACUGCC [C3U A6U A12G U32A], the self-cleavage is reported as 0.06. In the case of GGUAGUGCUCAACACGGCGUGGCAAAGUGGCUGUGGCUAGACUGCC [C3U A6U A16G], the self-cleavage is reported as 0.03. GGUAGUGCUCAACACAGCGUGGCAAAGUGGCUGUGGCUAGACUGGC [C3U A6U C45G] gave a self-cleavage of 0.09. GGUAGUGCCCAUCACAGCGUGGCAAAGUGGCUGUGGCUAGACUGCC [C3U A6U U9C A12U] gave a self-cleavage of 0.02. Variant GGUAGAGCUCCACUCAGCGUGGCCAAGUGGCUUUGGCUAGACUGCC [C3U A11C A14U A24C G33U] has a self-cleavage of 0.03. Variant GGUAGAGCUCCACAUAGCGGGGCUAAGUGGCUGUGGCUAGACUGCC [C3U A11C C15U U20G A24U] has a self-cleavage of 0.01. Variant GGUAGAGCUCCACACAGGGUGGCAAAGUAGCUGUGGCUAGACUGCC [C3U A11C C18G G29A] has a self-cleavage of 0.04. Work on GGUAGAGCUCCACACAUCCUGGCAAUGUGGCUGUGGCUGGACCGCC [C3U A11C G17U G19C A26U A39G U43C] yielded a self-cleavage of 0.01. GGUAGAGCUCCACACAGCGUGGCAAAUUGGGUGUGGCUAGACUGCC [C3U A11C G27U C31G] showed a self-cleavage of 0. In the case of GGUAGAGCUCGACACAGCGUGGCCCAGUAGCUGUGGCUAGACUGCC [C3U A11G A24C A25C G29A], the self-cleavage is reported as 0.02. Variant GGUAGAGCUCGACACAGCGUGGCAAAGUGGCUGUGGCUAGACCGUC [C3U A11G U43C C45U] has a self-cleavage of 0.03. For GGUAGAGCUCUACACAGCGUGGCAAAGUGGCUGUGGCUCGACUGCC [C3U A11U A39C], the self-cleavage was 0.02. In the case of GGUAGAGCUCUAAGCAGCGUGGCAAAGUGGCUGUGGCUAGACUGCC [C3U A11U C13A A14G], the self-cleavage is reported as 0.04. GGUAGAGCUCUACACAGCGUGCCAAAGUGGCUGUGGCUAGACUGCC [C3U A11U G22C] gave a self-cleavage of 0.03. Work on GGUAGAGCUCACAACAGCGUGGUAGAGAGGCUGUGGCUAGACUGCC [C3U A12C C13A C23U A25G U28A] yielded a self-cleavage of 0.01. GGUAGAGCUCACUACAGCGUGGCAAAGUGGAUGUGGCUAGACUGCC [C3U A12C C13U C31A] gave a self-cleavage of 0. In the case of GGUAGAGCUCAGCACAGGGUGGCAAAGUGGCUGUGGCUAGACUGCC [C3U A12G C18G], the self-cleavage is reported as 0.01. Work on GGUAGAGCUCAGCACAGCGUGGCAAAGUGGCUGUGGCUAGAGUGCC [C3U A12G C42G] yielded a self-cleavage of 0.05. Variant GGUAGAGCUCAGCACAGCUUGGCAAAGUGGCUUUGGCUAGACUGCC [C3U A12G G19U G33U] has a self-cleavage of 0.05. Work on GGUAGAGCUCAUCCCAGCGUGGCAAAGUGGCUGUGGCUAGACUGCC [C3U A12U A14C] yielded a self-cleavage of 0.03. Variant GGUAGAGCUCAUCGCAGCGUGGCAAAGUGGCUGUGGCUAGACUGCC [C3U A12U A14G] has a self-cleavage of 1.21. In the case of GGUAGAGCUCAUCACAUCGUGGCAAAGUGGCUGUGGCUAGACUGCC [C3U A12U G17U], the self-cleavage is reported as 0.05. Work on GGUAGAGCUCAUCACAGCGUGGCAAAGUGGCUGUGUAUAGACUGCC [C3U A12U G36U C37A] yielded a self-cleavage of 0.05. GGUAGAGCUCAACCCAGCGUGGUUAAGUGGCUGUGGCAAGACUGCC [C3U A14C C23U A24U U38A] gave a self-cleavage of 0.17. Variant GGUAGAGCUCAACCCAGCGUGGCAAAGUGUCUGUGGCUAGACUGCC [C3U A14C G30U] has a self-cleavage of 0.19. GGUAGAGCUCAACGCAGCGUGGCAAUGUGGCUGUGGCUAGACUGCC [C3U A14G A26U] showed a self-cleavage of 0.24. For GGUAGAGCUCAACGAAGCGCGGCAAAGUGGCUGUGGCUAGACUGCC [C3U A14G C15A U20C], the self-cleavage was 0.09. With GGUAGAGCUCAACGCAGCGUGGCAAAGUUGCUGUGGCUAGACUGCC [C3U A14G G29U] the self-cleavage was 0.38. Work on GGUAGAGCUCAACGCAGCGUGGCAAAGUGGCUUAGGCUAGACUGCC [C3U A14G G33U U34A] yielded a self-cleavage of 0.11. GGUAGAGCUCAACGCAGCGUGGCAAAGUGGCUGUGGCUAGACUCCC [C3U A14G G44C] showed a self-cleavage of 0.09. Work on GGUAGAGCUCAACGCAGCGUGGCAAAGCGGCUAUGGCUAGACUGCC [C3U A14G U28C G33A] yielded a self-cleavage of 0.16. Work on GGUAGAGCUCAACUCAGCUGGGUAUAGUGGCUGUGGCUAGACUGCC [C3U A14U G19U U20G C23U A25U] yielded a self-cleavage of 0.47. GGUAGAGCUCAACACCGCGUGGCGAAGUGGCUGUGGCUAGACUGCC [C3U A16C A24G] showed a self-cleavage of 0.02. Work on GGUAGAGCUCAACACCGCGUGGCAACGUGGCUGUGGCUAGACUGAC [C3U A16C A26C C45A] yielded a self-cleavage of 0. With GGUAGAGCUCAACACCGCGUUGCAACGUGGCUGUGGCUAGACUGCC [C3U A16C G21U A26C] the self-cleavage was 0.05. With GGUAGAGCUCAACACCGCGUGGCAAAGUGACUGUGGAUAGACGACC [C3U A16C G30A C37A U43G G44A] the self-cleavage was 0.04. GGUAGAGCUCAACACCGCGUGGCAAAGUGCCGGUUGCGAGACUGCC [C3U A16C G30C U32G G35U U38G] gave a self-cleavage of 0.17. Variant GGUAGAGCUCAACACGGCGUGGCAAAGUGGCUGUGGCUAGGCUACC [C3U A16G A41G G44A] has a self-cleavage of 0.05. With GGUAGAGCUCAACACGCCGUGGCCAAGUAGCUGUGGCUAGAGUGCC [C3U A16G G17C A24C G29A C42G] the self-cleavage was 0.01. GGUAGAGCUCAACACGGCGGGGCAAAGUAGCGCUGGAUAGACGGCC [C3U A16G U20G G29A U32G G33C C37A U43G] showed a self-cleavage of 0.01. GGUAGAGCUCAACACUGCGUGGCCAAGUGGCUGUGUCUAGACUGCC [C3U A16U A24C G36U] showed a self-cleavage of 0.12. Variant GGUAGAGCUCAACACUGCGUGGUAAAGUGGCUUUGGCUAGACUGCC [C3U A16U C23U G33U] has a self-cleavage of 0.06. GGUAGAGCUCAACACAGCGUGGCCAGGUGGCUGUUGCUUGACUGCC [C3U A24C A26G G35U A39U] showed a self-cleavage of 0.03. In the case of GGUAGAGCUCAACACAGCGUGGCCAUCUGGCUGUGGCUAGACUGCA [C3U A24C A26U G27C C46A], the self-cleavage is reported as 0.08. GGUAGAGCUCAACACAGCGUGGCCAAGUGGCUGUGGUAAGACUGCC [C3U A24C C37U U38A] gave a self-cleavage of 0.05. With GGUAGAGCUCAACACAGCGUGGCCAAGUGGCUGUGGCUAGACUGGC [C3U A24C C45G] the self-cleavage was 0.77. GGUAGAGCUCAACACAGCGUGGCGAAGUGGCUGUGGCUAGUCUGGC [C3U A24G A41U C45G] gave a self-cleavage of 0.4. GGUAGAGCUCAACACAGCGUGGCGAAGUGGCUGUGGCUAGACUUGC [C3U A24G G44U C45G] showed a self-cleavage of 0.12.
